# Results taken from publication PMC5515408.
# The other results are listed elsewhere or left out. At the low end of the ranking the order means little.
# Test system: MYC (p64) + MAX (p21), in MYC:MAX
# Test: protein-binding microarray (anti-MAX antibody)
# Conditions: PBM: 15 mM Tris-HCl pH 7.5, 100 mM KCl, 0.075% NP40, 7.5 mM beta-mercaptoethanol, 375 ng/ul BSA, 8 ng/ul poly(dA-dT):(dA-dT), 550 ng complex, 60 min, room …; high values mean tight binding; double strand, one strand shown; sequences stand for … in CCGGC…TTAATAGCTAAGATTACTATATCGACG
row,Sequence,binding signal (log2 normalized fluorescence)
1,TGAACCTGCGTA,0.156
2,GATGCGCGACCA,0.327
3,TGACAAGTGGGA,0.302
4,TGAAAGTCAGTA,-0.0668
5,TGAACGACCGTA,0.201
6,TGACACGTGAAG,0.527
7,TGATTCGGGGTA,0.0525
8,TGATAAAAGGTA,-0.00131
9,TGATCGCGCGTA,0.284
10,TGACACTTTGTA,0.302
11,TGAGCAACGGTA,-0.0565
12,TGATATGAGGTA,-0.0821
13,TGATTGCGTGTA,0.205
14,TGTCATGTTGTA,0.371
15,TGAGTGGGGGTA,0.621
16,TGAATCAAAGTA,-0.00984
17,ATAAAATTCAGC,0.125
18,TGAGCACTAGTA,0.224
19,TGAGCAAGTGTA,0.173
20,TGAGCCTGGGTA,-0.148
21,TGACGGGAGGTA,0.133
22,TGATCAAAAGTA,-0.139
23,TGAACTTGTGTA,0.308
24,TGAGACGCAGTA,0.055
25,TGTTGCGTGGTA,0.336

row,Sequence,binding signal (log2 normalized fluorescence)
1,TGACGAGGCGTA,0.179
2,TGAACTGCAGTA,0.0203
3,TGAAGCTGTGTA,-0.0331
4,TGAAAAACTGTA,0.00768
5,TGACATAAAGTA,0.134
6,TGACCACGGGTA,0.358
7,TGACACACTGTA,0.432
8,TGAGATAAGGTA,-0.09
9,ATAATGCGCTTA,0.423
10,TGATACGAGGGA,0.115
11,TGAGCTCTTGTA,-0.104
12,AGATACGCGGTA,0.252
13,TGACGTCACGTA,0.246
14,TGATTGTGCGTA,0.0842
15,TGAATTCCTGTA,0.0453
16,TGAAGGATAGTA,0.047
17,TGATGAAAGGTA,-0.00378
18,TGTCACCCGGTA,0.261
19,TGAGGTCTTGTA,0.0507
20,TGACCAGTCGTA,0.0688
21,TGAACTGACGTA,0.117
22,TGAGATATTGTA,-0.0986
23,TGACAGGAAGTA,0.167
24,TGAGCAAGGGTA,0.201
25,TGATGATAAGTA,-0.0828

row,Sequence,binding signal (log2 normalized fluorescence)
1,TGATGCCGAGTA,0.0024
2,TGATGCTCAGTA,0.152
3,TGACACGTATAA,0.512
4,TGAGGCCTAGTA,0.0219
5,TGAAGCTCAGTA,-0.0107
6,TGACACGTCCAA,0.369
7,TGAGAGTCAGTA,0.106
8,TGAAACGATGTA,0.299
9,TGACTAAAAGTA,0.0453
10,TGATACGCGGTC,0.0753
11,TAACTCGTGGTA,0.792
12,TGAATGCGGGTA,0.103
13,TGATGCTTTGTA,0.198
14,AGAAATCTTGTT,0.151
15,TGAGTCCCAGTA,-0.0334
16,TGAGAGAACGTA,-0.0341
17,TGATCCATGGTA,0.033
18,TGAGGGGCTGTA,0.412
19,TGACCCTGCGTA,0.102
20,TAGCACGTGGTA,0.917
21,TGAATGAGCGTA,-0.0492
22,TGACCCGGCGTA,0.132
23,TGACACGTAGTG,0.396
24,TGATTACTTGTA,0.0962
25,TGATCGAAAGTA,-0.157

row,Sequence,binding signal (log2 normalized fluorescence)
1,TGACCGGCAGTA,0.151
2,TGAATATTAGTA,0.0425
3,TGAGGTTCTGTA,-0.0942
4,TGATATCACGTA,0.14
5,TGAGTCCCTGTA,-0.0383
6,TGAGGAACTGTA,-0.147
7,TGATGCAGCGTA,0.0277
8,TGAGCCAGTGTA,0.17
9,TGAATCCCCGTA,-0.0106
10,TGATGTCGTGTA,0.39
11,TGAGTCATAGTA,0.0316
12,TGACCTTCGGTA,-0.000527
13,TGAAGTAGTGTA,-0.0724
14,TGATGCCTAGTA,0.068
15,TGAATGCAAGTA,0.211
16,AACCACGTGGTA,0.742
17,TGACACCCCGTA,0.283
18,TGAGTACTAGTA,-0.261
19,TGACACGTGAGG,0.702
20,AGACATGGGGTA,0.458
21,TGAGAGTAAGTA,-0.116
22,TGAATGCATGTA,0.293
23,TGACACGAATTA,0.413
24,TGATCCCCGGTA,-0.125
25,TGAGGAAATGTA,-0.124

row,Sequence,binding signal (log2 normalized fluorescence)
1,TGACCAAATGTA,0.145
2,TGACGGCAAGTA,-0.0545
3,TGAGCTATAGTA,-0.0105
4,TGAAACGCCGTA,0.289
5,TGATGCAAGGTA,0.186
6,TGATATTGTGTA,0.115
7,TGATAACAGGTA,-0.0157
8,TGACCGAAAGTA,-0.112
9,TGACACGTCAGA,0.387
10,TGAACCTTTGTA,-0.0493
11,GTGACGATCAGC,0.409
12,TGATCGTTGGTA,-0.054
13,TGGCACGTGGCA,0.721
14,TGAAGATGAGTA,-0.0701
15,TGACTCTGTGTA,-0.0698
16,TGCCACGTGCGA,0.695
17,TGACTATTCGTA,-0.0584
18,TCCCACTTGGTA,0.205
19,TGAGTAGATGTA,0.0114
20,TGAACGTCCGTA,-0.0316
21,TGATGATAGGTA,-0.035
22,TGATACAGGGTA,-0.0382
23,TGCCACTTGGTG,0.338
24,TGAACGGGAGTA,0.0172
25,TGACACGTAGGA,0.308

row,Sequence,binding signal (log2 normalized fluorescence)
1,TGAGTCTAGGTA,-0.13
2,TGAAGCGAAGTA,-0.0696
3,TGAGACCCAGTA,0.0192
4,TGACACGTGCAT,0.894
5,TGATCCGGCGTA,-0.0199
6,TGATCTCCTGTA,0.121
7,TGAACATCCGTA,0.283
8,TGATTGGACGTA,-0.101
9,TGTCACGAGGTA,0.787
10,TGAACGCGCGTA,0.441
11,TGAGCTAATGTA,0.0657
12,TGAGCTGGTGTA,-0.111
13,TGAAATTCCGTA,-0.0313
14,TGACTGCCGGTA,-0.0047
15,TGATGGAATGTA,0.103
16,TGAAGACGAGTA,0.063
17,TGAGTGACGGTA,0.0946
18,TGATTAGCTGTA,-0.109
19,TGAGCTTAAGTA,-0.045
20,TGACTTATGGTA,0.349
21,TGAGATTGCGTA,0.0933
22,TGACAGGAGGTA,0.255
23,TGACACGTGTCC,0.926
24,TGACATGATGTA,0.565
25,TGACAAAAAGTA,-0.123

row,Sequence,binding signal (log2 normalized fluorescence)
1,TGATTTCAAGTA,-0.066
2,TCACACGTTTTA,0.662
3,TGACCTGCAGTA,0.156
4,TGACTGGTCGTA,0.229
5,TGACACTTCGTA,0.254
6,TGAATCCGCGTA,0.159
7,TGATTCCGTGTA,-0.0723
8,TGAAAGACAGTA,-0.0398
9,TGAGACTATGTA,0.0235
10,TGATACGAGGTC,0.144
11,TGAGACGTAATA,-0.082
12,TGTCACGTGTTC,0.848
13,TGACCGGTGGTA,0.139
14,TGGCACTGGGTA,0.157
15,TGAAGGAGTGTA,0.0321
16,TCACACGTGTTA,0.827
17,TGAGCACTCGTA,0.166
18,TATCACCTGGTA,0.305
19,TGACGGTTCGTA,0.0156
20,TGAGAGAGCGTA,0.11
21,TTCCGCCCAGGT,0.044
22,CGACACCTGTTA,0.432
23,TGAACGAATGTA,0.267
24,TGAGCCACGGTA,0.281
25,TGAGAGCCTGTA,0.173
